# Laboratory results from the BET-seq Pho4 binding data (Le et al. 2018).
# The list shows a part of the results. Values were computed here from the reads of four pooled replicates and scatter widely.
# Molecular target: T1, Pho4 (S. cerevisiae) (UniProt P07270)
# T1 sequence: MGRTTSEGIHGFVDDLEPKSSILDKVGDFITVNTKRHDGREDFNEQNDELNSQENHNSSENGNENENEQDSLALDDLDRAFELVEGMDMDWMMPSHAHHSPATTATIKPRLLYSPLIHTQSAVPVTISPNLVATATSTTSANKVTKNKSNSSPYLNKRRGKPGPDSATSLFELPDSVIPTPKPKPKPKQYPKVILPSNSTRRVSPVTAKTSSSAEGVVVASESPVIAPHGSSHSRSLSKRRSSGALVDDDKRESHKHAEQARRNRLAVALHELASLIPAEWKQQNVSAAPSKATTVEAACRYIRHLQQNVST
# Assay: relative binding free energy (BET-seq); higher = weaker binding
# Conditions: reference: library average
row,Sequence,relative binding free energy
1,TTAAGCACGTGGAGTA,-0.14 kcal/mol
2,AGGTTCACGTGGGTCA,-0.04 kcal/mol
3,AGTTGCACGTGGCCGG,-0.08 kcal/mol
4,AGTGTCACGTGGCCGT,-0.02 kcal/mol
5,TTATGCACGTGTGCGC,0.03 kcal/mol
6,CGGTGCACGTGTTATA,-0.16 kcal/mol
7,AGACACACGTGCGGGG,0.11 kcal/mol
8,TTCGTCACGTGATGGT,0.24 kcal/mol
9,GTGAGCACGTGAGAGC,0.27 kcal/mol
10,GTTGCCACGTGGCTTG,-0.1 kcal/mol
11,TGTTCCACGTGCATTT,0.11 kcal/mol
12,TGCTACACGTGGTGTT,-0.01 kcal/mol
13,TGTTCCACGTGTGCTT,-0.05 kcal/mol
14,TTGGCCACGTGTGGTA,0 kcal/mol
15,GGTTGCACGTGAATAG,0.23 kcal/mol
16,TTGGGCACGTGATTGG,0.09 kcal/mol
17,TGGCACACGTGAAGGT,0.25 kcal/mol
18,TGCCGCACGTGGGGCT,-0.17 kcal/mol
19,TATATCACGTGCAGTT,0.14 kcal/mol
20,TGGGTCACGTGTCACG,0.14 kcal/mol
21,TAGTTCACGTGGTCTA,0.19 kcal/mol
22,ATGGCCACGTGTTAGA,-0.03 kcal/mol
23,AGGATCACGTGGTTAG,0.18 kcal/mol

row,Sequence,relative binding free energy
1,CGGGTCACGTGTTGGG,0.14 kcal/mol
2,TGCTTCACGTGCAGGG,0.28 kcal/mol
3,ATAGTCACGTGGATTA,0.14 kcal/mol
4,GATGGCACGTGGGGTT,-0.12 kcal/mol
5,CGTGGCACGTGGTCTA,-0.29 kcal/mol
6,GATTTCACGTGTTGAG,0.39 kcal/mol
7,TAGAACACGTGGGGTT,-0.11 kcal/mol
8,AGTGACACGTGCGATT,-0.06 kcal/mol
9,ATTTCCACGTGGATGT,0.05 kcal/mol
10,GTTTTCACGTGCTTGG,0.19 kcal/mol
11,CTGGACACGTGCGGGG,-0.08 kcal/mol
12,TGTTCCACGTGCATGG,-0.03 kcal/mol
13,GAATACACGTGAAGGG,0.47 kcal/mol
14,TACTGCACGTGATTTG,0.12 kcal/mol
15,GTTGACACGTGAGCTG,0.17 kcal/mol
16,GTACTCACGTGGGGAG,0.13 kcal/mol
17,TTTAACACGTGAGGGA,0.32 kcal/mol
18,TCGTGCACGTGCGGGC,-0.07 kcal/mol
19,TTATTCACGTGGTGTG,0.28 kcal/mol
20,GTGCTCACGTGGTGAT,0.21 kcal/mol
21,TATGGCACGTGGTGCT,-0.35 kcal/mol
22,TGTGCCACGTGAGTTT,0.08 kcal/mol
23,TTAAACACGTGTTAGA,0.01 kcal/mol

row,Sequence,relative binding free energy
1,TCTAGCACGTGGGGAA,-0.24 kcal/mol
2,TGTAGCACGTGGTTTA,-0.22 kcal/mol
3,TGCGTCACGTGGCTTT,0.08 kcal/mol
4,TTGTGCACGTGCGGGG,0 kcal/mol
5,TTGAGCACGTGACGGT,0.1 kcal/mol
6,AGAAGCACGTGTTGGG,-0.02 kcal/mol
7,ATCTTCACGTGTATAG,0.22 kcal/mol
8,GTTGTCACGTGGCAAT,0.12 kcal/mol
9,TTTAGCACGTGGCTAT,-0.15 kcal/mol
10,TATTTCACGTGGTAGG,0.15 kcal/mol
11,TGTGTCACGTGAGTAC,0.23 kcal/mol
12,GTGTTCACGTGACAAT,0.51 kcal/mol
13,AGCTGCACGTGGAATA,0.3 kcal/mol
14,CTTATCACGTGGGAAG,0.08 kcal/mol
15,TTTACCACGTGAGGGG,0.21 kcal/mol
16,ATTGTCACGTGGAAAG,0.08 kcal/mol
17,GGTGACACGTGGCTGA,0.04 kcal/mol
18,TCTGGCACGTGGGCTG,-0.3 kcal/mol
19,TTGTTCACGTGCAGAT,0.09 kcal/mol
20,CATGGCACGTGTATTT,-0.17 kcal/mol
21,GAGTCCACGTGATGGT,0.29 kcal/mol
22,AGTTTCACGTGATACT,0.32 kcal/mol
23,AGGTACACGTGTGGCA,0.08 kcal/mol

row,Sequence,relative binding free energy
1,TTGCTCACGTGGTTGG,0.27 kcal/mol
2,CGTGTCACGTGCGTGG,-0.1 kcal/mol
3,GTATGCACGTGAATTG,0.14 kcal/mol
4,GAGATCACGTGATAGG,0.39 kcal/mol
5,GGTGACACGTGAGATT,0.28 kcal/mol
6,ATCGGCACGTGAGTTG,0.24 kcal/mol
7,CGGATCACGTGTGTGC,0.19 kcal/mol
8,AAGTGCACGTGGTACG,-0.23 kcal/mol
9,GTTTGCACGTGTTTGC,0.04 kcal/mol
10,CGTTTCACGTGAGGTA,0.24 kcal/mol
11,ATATGCACGTGAGATT,0.26 kcal/mol
12,TTAGTCACGTGCCGGT,0.03 kcal/mol
13,GATTGCACGTGCGGAG,0.02 kcal/mol
14,TCTTACACGTGTGTTG,0.27 kcal/mol
15,TTGTTCACGTGAGCTG,0.39 kcal/mol
16,GTTGGCACGTGTGTAA,-0.03 kcal/mol
17,TCGATCACGTGTTAGT,0.13 kcal/mol
18,ATCTTCACGTGTGGGA,0.23 kcal/mol
19,GCAGGCACGTGGTAGG,-0.13 kcal/mol
20,TGTGGCACGTGGAACA,0.02 kcal/mol
21,GGAGTCACGTGGGGTC,0.13 kcal/mol
22,AGTTGCACGTGTGGAC,0.13 kcal/mol
23,GTTTTCACGTGCGGCA,0.35 kcal/mol

row,Sequence,relative binding free energy
1,CTAATCACGTGGTATT,0.01 kcal/mol
2,AAAGGCACGTGATTTG,0.11 kcal/mol
3,TATGTCACGTGATGTA,0.12 kcal/mol
4,TATGCCACGTGTGGAG,-0.04 kcal/mol
5,GTGGTCACGTGAGACG,0.35 kcal/mol
6,GGAAGCACGTGACGGT,0.06 kcal/mol
7,AGGAGCACGTGATGGC,0.09 kcal/mol
8,AGGGTCACGTGGCGCT,-0.01 kcal/mol
9,GTGGTCACGTGTAGGG,0.19 kcal/mol
10,ATACGCACGTGTTTTT,-0.15 kcal/mol
11,GGAGTCACGTGTTATC,0.23 kcal/mol
12,AGTACCACGTGAATGT,0.23 kcal/mol
13,AGAGCCACGTGGTTGT,-0.11 kcal/mol
14,GGGGTCACGTGTATTA,0.31 kcal/mol
15,TAAGTCACGTGAGGGA,0.35 kcal/mol
16,TTTCGCACGTGTGAAT,0.04 kcal/mol
17,CGTAGCACGTGTGTGA,0.02 kcal/mol
18,GCTAGCACGTGGATGT,-0.04 kcal/mol
19,TGATGCACGTGAAATG,0.22 kcal/mol
20,TGTAACACGTGCGTGG,-0.19 kcal/mol
21,TAGGCCACGTGGAGAT,0.07 kcal/mol
22,GGTCGCACGTGGTAGG,-0.12 kcal/mol
23,ACTATCACGTGGGGGA,0.03 kcal/mol
